The values that follow come from paper PMC4336329 (PLoS ONE, 2015).

Hit rate of the full screen: of about 310,000 compounds, about 14,000 (4.5%) showed an effect of 50% or more. The effect is printed as a negative number. This is one part of the list.
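Note: peak tail current of the secondary pulse compared with the same well before compound.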

In this experiment the target is human ether-à-go-go-related gene (hERG) potassium channel (human, UniProt Q12809). Description: primary screen, population patch clamp on CHO cells stably expressing hERG.
Sequence of human ether-à-go-go-related gene (hERG) potassium channel (Q12809 whole entry, looked up): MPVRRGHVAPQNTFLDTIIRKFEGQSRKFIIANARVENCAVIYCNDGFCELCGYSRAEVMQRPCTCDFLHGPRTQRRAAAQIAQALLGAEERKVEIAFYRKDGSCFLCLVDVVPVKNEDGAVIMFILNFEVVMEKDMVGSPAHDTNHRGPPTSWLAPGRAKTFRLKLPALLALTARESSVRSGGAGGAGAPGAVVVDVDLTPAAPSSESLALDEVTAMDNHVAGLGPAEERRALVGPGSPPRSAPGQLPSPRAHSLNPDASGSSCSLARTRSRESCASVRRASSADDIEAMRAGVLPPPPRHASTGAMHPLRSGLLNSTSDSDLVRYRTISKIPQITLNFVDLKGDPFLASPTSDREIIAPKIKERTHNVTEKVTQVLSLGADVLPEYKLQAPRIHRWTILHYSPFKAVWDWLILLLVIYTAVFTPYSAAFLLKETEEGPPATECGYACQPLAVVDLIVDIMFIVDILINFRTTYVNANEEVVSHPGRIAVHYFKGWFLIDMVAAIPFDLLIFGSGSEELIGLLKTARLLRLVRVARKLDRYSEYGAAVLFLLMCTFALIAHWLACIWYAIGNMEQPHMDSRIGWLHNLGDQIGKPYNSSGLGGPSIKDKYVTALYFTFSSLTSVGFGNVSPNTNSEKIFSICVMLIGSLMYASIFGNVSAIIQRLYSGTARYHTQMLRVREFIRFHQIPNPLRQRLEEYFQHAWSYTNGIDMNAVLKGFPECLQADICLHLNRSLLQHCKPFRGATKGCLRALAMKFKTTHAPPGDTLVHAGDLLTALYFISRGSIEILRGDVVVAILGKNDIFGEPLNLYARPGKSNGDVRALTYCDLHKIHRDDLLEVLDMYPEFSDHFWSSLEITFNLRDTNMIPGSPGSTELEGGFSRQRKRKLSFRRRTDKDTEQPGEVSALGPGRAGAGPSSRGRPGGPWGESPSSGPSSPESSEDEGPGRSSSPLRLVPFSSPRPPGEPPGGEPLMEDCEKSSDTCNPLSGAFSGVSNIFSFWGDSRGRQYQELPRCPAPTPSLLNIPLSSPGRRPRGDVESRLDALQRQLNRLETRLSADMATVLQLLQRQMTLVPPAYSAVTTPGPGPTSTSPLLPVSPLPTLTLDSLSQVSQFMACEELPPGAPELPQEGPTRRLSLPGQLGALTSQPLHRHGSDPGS
Regarding `COc1ccc(N/C=C\C(=O)c2ccc(C)cc2)cc1OC`, the “hERG current change (%, negative = inhibition) at 10uM” value is on record as 17.7%.
For the compound `CCOc1cc(C(=S)N2CCCCC2)ccc1OS(=O)(=O)c1ccc(Cl)cc1`, the “hERG current change (%, negative = inhibition) at 10uM” value is -1.37%.
For the compound `O=C1CCCC(O)=C1N=Nc1ccc2ncsc2c1`, the “hERG current change (%, negative = inhibition) at 10uM” value is on record as -19.3%.
Then `COc1cc(OC)cc(C(=O)NCCCNC(=O)c2ccccn2)c1`, with 17.8%.
Regarding `CN1CCc2c(sc(NC(=O)c3cc(Cl)sc3Cl)c2C(N)=O)C1.Cl`, the “hERG current change (%, negative = inhibition) at 10uM” value is given as -59.8%.
In the case of `COCCNC(=O)c1cn(C)c(=O)c2cc(OC)c(OC)cc12`, the “hERG current change (%, negative = inhibition) at 10uM” value is given as 19.3%.
Then `CC(=O)Nc1nnc(CCN(CCc2nnc(NC(C)=O)s2)[N+](=O)[O-])s1`, with 14.3%; and `CCC(c1nnnn1CCOC)N(Cc1cc2cc(C)c(C)cc2[nH]c1=O)CC1CCCO1` (stereo not shown), with -8.4%; and `CC(C)(C)c1cc(NC(=O)COc2ccc(Br)cc2)n(-c2ccccc2)n1`, with 7.35%.
The figure for `Cc1ccc(-c2noc(CCC(=O)NCCN3CCN(Cc4ccccc4)CC3)n2)cc1` is -49%; for `O=C(Cc1cccs1)Nc1nnc(COc2ccccc2)s1` it is 3.05%.
Then `COc1ccc(C(=O)N2CCN(C(C)=O)CC2)cc1S(=O)(=O)N1CCOCC1`, with 22.5%; and `O=C(Cc1ccc(S(=O)(=O)N2CCOCC2)s1)N1CCN(c2cccc(C(F)(F)F)c2)CC1`, with -31.7%; and `O=C(Nc1nc2c(Cl)ccc(Cl)c2s1)C1CC1`, with -0.575%.
As to `O=C(NCCc1ccccc1)/C(=N\O)c1ccccc1`, the “hERG current change (%, negative = inhibition) at 10uM” value stood at 7.7%.
The figure for `Nc1ccc(C(=O)N2N=C(c3ccccc3)CC2(O)C(F)(F)F)cc1` (stereo not shown) is -22.9%; for `COc1cccc2c1C(=O)c1c(O)c3c(c(O)c1C2=O)C[C@](O)(C(C)=O)C[C@H]3O[C@@H]1C[C@@H](N)[C@@H](O)[C@@H](C)O1.Cl` it is -5.69%; for `COC(=O)C1=C(C(=O)OC)[C@@H]2Nc3ccccc3[C@@]23C[C@@H](C(=O)OC)N(C(=O)C2CCC2)C3=N1` it is -31.5%.
The figure for `O=C(O)C(=O)O.OC(CNCC(c1ccco1)N1CCCCC1)c1ccccc1` (stereo not shown) is -1.87%.
Turning to `Nc1cc(Cl)ccc1Oc1ccc2ccccc2c1`, the “hERG current change (%, negative = inhibition) at 10uM” value was -3.43%.
The figure for `NNc1nc(-c2ccccc2Cl)nc2ccccc12` is 11.1%; for `C=CCSC1=N/C(=C\c2cc(OCC)c(OC(C)=O)c([N+](=O)[O-])c2)C(=O)S1` it is 2.96%.
As for `COc1cc(C(O)CN)ccc1O.Cl` (stereo not shown), the “hERG current change (%, negative = inhibition) at 10uM” value amounted to 3.21%.
Then `CCc1ccc(NC(=O)CSCCO)cc1`, with 6.8%.
The figure for `CCCN(CCC)C(=O)CSc1nc2ccccc2c(=O)n1C1CCCC1` is -36.1%.
Then `CCC1CN(C(=O)N2CCC(C(=O)NCc3ccco3)CC2)c2ccccc2O1` (stereo not shown), with 0.0731%; and `CC(C)(C)c1nc2c(s1)CCc1onc(-c3ccc(Br)cc3)c1-2`, with 11.5%; and `COc1ccc(N(C)C(=O)CN(C)S(=O)(=O)c2ccc3c(c2)c(=O)n(C)c(=O)n3C)c(OC)c1`, with -11.8%.
On to `COc1cccc(OC)c1OCCOCCn1cnc2ccccc2c1=O`, for which the “hERG current change (%, negative = inhibition) at 10uM” value is 3.5%.
The figure for `Cc1c(CC(=O)N2C[C@H]3C[C@@H](C2)c2cccc(=O)n2C3)c(=O)oc2cc(O)c(Cl)cc12` is 9.44%.
Then `COc1cc(C)ccc1OCCCCN1CC(C)OC(C)C1.O=C(O)C(=O)O` (stereo not shown), with -9.65%; and `C[N+]1(CC2COC3(CCCCC3)O2)CCCCC1.[I-]` (stereo not shown), with 4.38%; and `COc1ccc(CSc2nnnn2-c2ccc(C(N)=O)cc2)cc1[N+](=O)[O-]`, with 18.4%.
Regarding `CSCC[C@H](N)C(=O)NCC1CCC(C(=O)Nc2ccc3c(c2)OCO3)CC1` (stereo partly shown), the “hERG current change (%, negative = inhibition) at 10uM” value stood at 14.3%.
As for `O=C(COC(=O)c1ccco1)NC1CCCC1`, the “hERG current change (%, negative = inhibition) at 10uM” value was determined as 21.6%.
The figure for `O=C(Nc1nc2ccccc2s1)c1cnccn1` is 9.97%.
As to `O=C(NCc1ccco1)c1cccc(-c2nnc(-c3ccccc3)o2)c1`, the “hERG current change (%, negative = inhibition) at 10uM” value is on record as -43%.
The figure for `COc1ccc(OCC(=O)Nc2ncc3c(n2)CC(C)(C)CC3=O)cc1` is -8.64%.
Turning to `O=c1[nH]c2cc3c(cc2cc1CN(CCCO)Cc1nnnn1Cc1ccc(F)cc1)OCO3`, the “hERG current change (%, negative = inhibition) at 10uM” value is recorded as -4.03%.
Then `Cc1ccc(C(=O)N2CCN(C(=O)CN3CCOCC3)C2)cc1`, with -3.7%; and `COC(=O)c1cc(C(=O)c2ccc(Cl)cc2)n2c(=O)/c(=C\N(C)C)sc12`, with 0.67%.
The figure for `CCN1CCN(Cc2ccc(NC(=O)c3ccc(C)c(NC(=O)c4c[nH]c5cc(C(F)(F)F)ccc5c4=O)c3)cc2C(F)(F)F)CC1` is 9.65%; for `CC(C)=CC(=O)O[C@H]1[C@@H]2[C@H](C)C(=O)O[C@@H]2C[C@@H](C)[C@@H]2[C@@H](O)CC(=O)[C@]21C` it is 22.4%.
